Columns and labels:
[1] = target: carbonic anhydrase IX (CAIX) as expressed on SKRC52 human renal cell carcinoma cells, SKRC52 tumour sections … (human, UniProt Q16790); assay: flow cytometry on SKRC52 cells, conjugate at 10 ug/mL, detected with rat anti-IL2 and anti-rat AlexaFluor488
Method: Antigen expression on SKRC52 cells was confirmed by flow cytometry. Cells were centrifuged and washed in cold FACS buffer (0.5% BSA, 2 mM EDTA in PBS) and stained with hIL2-XE114-hTNF^mut conjugate (final concentration 10 μg/mL) and detected with rat anti-IL2 followed by staining with anti-rat AlexaFluor488. IL2-KSF-TNF^mut (specific for an irrelevant antigen) was used as a negative control.

[2] = target: extracellular domain of CAIX coated on an SA chip (Example 3) (human, UniProt Q16790 in part); assay: SPR (BIAcore X100), CAIX-coated SA chip, conjugate injected as serial dilutions
Method: Affinity measurements were performed by surface plasmon resonance using BIAcore X100 instrument using a CAIX coated SA chip. Samples were injected as serial-dilutions, in a concentration range from 1 mM to 62.5 nM. Regeneration of the chip was performed by HCl 10 mM.

binding result [1]: binds
binding result [2]: binds
B1: hIL2-XE114-hTNFmut conjugate (without the glycosylation motif) (other)
chain: [about 150 residues not shown]GDGSSGGSGGASEVQLLESGGGLVQPGGSLRLSCAASGFTFSSYAMSWVRQAPGKGLEWVSAIDGSGGSTYYADSVKGRFTISRDNSKNTLYLQMNSLRAEDTAVYYCVKGPPVFDYWGQGTLVTVSSGGGGSGGGGSGGGGSSELTQDPAVSVALGQTVRITCQGDSLRSYYASWYQQKPGQAPVLVIYGKNNRPSGIPDRFSGSSSGNTASLTITGAQAEDEADYYCQSSKWSWDPVVFGGGTKLTVLGSSSSGSSSSGSSSSG[about 150 residues not shown]
notes: Fusion of human IL2, linker, XE114 scFv (VL N88Q), linker and human TNF (R32A)

— patent publication US20210054095A1 (PHILOGEN S P A, published 2021)
